Measured values reported in the RNAGym collection of RNA variant scans (doi:10.7554/elife.90254).
The source gives no read counts; variants with many changes may rest on few reads.

B1: OR4K15 (parent)
chain: GUUAACGGUCAUAGGCCAUGGAAACUAGGAGCACCAUUUCGCUGCCAGUGAAGAAAUGAACAAAGAAAAUCUGGGCCAGGCAGGCAUCAAAAGAAAUAGUCUUGCGCUCAACCAGAAAGUCUGUAAUCAUUUUAAGGGUA

Variants of: B1
Assay: self-cleavage, relative activity (ratio to wild type); higher = more cleavage; in vitro, sequencing; the parent is a self-cleaving ribozyme

Row | Variant | self-cleavage
1 | U38A A52G A67U U108A | 0.03
2 | U39A A78U A117G | 0.15
3 | U38C A69G U124G U139C | 0.72
4 | U38A U49C A54G G65A U132C | 2.32
5 | U39C A69G A116U A118G | 0.21
6 | U39C A68G G75U A86G | 0.12
7 | U38C U72A A110G A117G U127A | 0.03
8 | U39A A55G A117G U130C | 2.41
9 | U39C U49A A114U | 0.03
10 | U38C A89G G104U A111G | 0
11 | U38C A110U C112U | 0
12 | U39C A52G U127C | 0.84
13 | U39A A118G U127A | 1.32
14 | U39C A126G A140G | 1.81
15 | U38C A67G U130A | 1.63
16 | U39C U43A A64G A92G | 2.55
17 | U39A U43C A47U | 1.06
18 | U38A A86U G137C | 2.09
19 | U38C A51G A59G U131C | 1.17
20 | U37C U108C G138A | 0.02
21 | U37C U108C A126G | 0

Row | Variant | self-cleavage
22 | U38C A96G G115A | 0.24
23 | U39C U87A A129U | 0.36
24 | U38C U39A A54G | 1.4
25 | U39C U43C A59G A91G U102C A114U | 0.11
26 | U39A A129U U132A | 1.26
27 | U39A U57C C88U | 1.64
28 | U37C U70C U132C | 0.89
29 | U39A A92G A114U C128A | 0.05
30 | U39C A64G A126G | 0.87
31 | U37C U38C A56G U57C A89G U103C | 0.43
32 | U38C A54G U57C A114G | 0.13
33 | U39C A91G A94C | 0.42
34 | U39C A91G A94U | 1.03
35 | U39A C107U U124A U132C | 0
36 | U39C A78U A94G A117G | 0.38
37 | U39C U57A A67G A126G | 1.33
38 | U37C G53U U108C U120C U131C | 0
39 | U39A A47G A60G A67G | 1.05
40 | U38A A118G A135G | 1.97
41 | U38C U120A A129U | 1.05
42 | U39C A51G A63U G123A | 1.51

Row | Variant | self-cleavage
43 | U38C G74A A90U | 0.82
44 | U39C U70C A111G | 0.02
45 | U37C U49C A59G U72A | 0.16
46 | U39A U49A A54G A59U U87C A92G G106A | 0.01
47 | U39C A47G A55G G93A A116G | 0.93
48 | U38C A67G A118G | 0.59
49 | U38C A51G A60G | 1.59
50 | U39A A64U A96G U130G | 1.64
51 | U39C U108C A111G A118G | 0.01
52 | U39A A54G U120C | 1.18
53 | U39C A47U A52U U120A | 0.37
54 | U39A U108G A110C U131C A135G | 0.1
55 | U39C A51G A82U | 0.24
56 | U39C A62G A68G A116G | 1.13
57 | U39A C42U A90U A98G C105A A116U | 0.01
58 | U39C A54G A92G | 2.49
59 | U39C A92G U122C | 0.93
60 | U39C U57C A59G A66U U120A | 1.59
61 | U38C A56G A95C A96G U122A A135C | 0.91
62 | U38C A55G A95U U120C | 0.69
63 | U39C A60U A67G A92G A95G G99A A116G | 0.11

Row | Variant | self-cleavage
64 | U38C U102C U108C | 0.01
65 | U39A A51G U57G | 0.26
66 | U38C U57G U70C U87A A90G | 0.46
67 | U38G A52G A55G | 0.83
68 | U39C U102A A129G | 0.66
69 | U38A U57C A91G A117G A118U | 0.77
70 | U37C G75A A98U | 0.07
71 | U37C U87C A110G | 0.05
72 | U39C A64G A111G A117G | 0.02
73 | U38C A66G A94G U103C U131C | 0.83
74 | U39C A54G G58A | 1.8
75 | U38C A51G U72C A117U | 0.17
76 | U38A A60G A94G A126G | 0.2
77 | U38C A56G G123A | 1
78 | U39C A69G A82U U124A | 0.08
79 | U38C A56G A62U U122C | 1.14
80 | U39C U49C A82G U108C A116G A126G | 0
81 | U39C A59U A69G U87A | 0.89
82 | U38C A60G A126U | 0.61
83 | U39C A68C A86G A118G | 1.63
84 | U39C U87C A95G U100C | 0.18
